From the supplement of paper PMC8728848
The other results are listed elsewhere or left out.

Columns and labels:
Test in all cases: glycan array binding signal (z-score within array); higher = stronger binding
Details in all cases: glycan notation: IUPAC condensed, linker removed
[1] = biological target: Gal(b1-4)GlcNAc(b1-3)Gal(b1-4)GlcNAc(b1-3)Gal(b1-4)GlcNAc(b1-3)Gal(b1-4)GlcNAc(b1-3)Gal(b1-4)GlcNAc(b1-2)[Gal(b1-4)GlcNAc(b1-3)Gal(b1-4)GlcNAc(b1-3)Gal(b1-4)GlcNAc(b1-3)Gal(b1-4)GlcNAc(b1-3)Gal(b1-4)GlcNAc(b1-6)]Man(a1-6)[Gal(b1-4)GlcNAc(b1-3)Gal(b1-4)GlcNAc(b1-3)Gal(b1-4)GlcNAc(b1-3)Gal(b1-4)GlcNAc(b1-3)Gal(b1-4)GlcNAc(b1-2)Man(a1-3)]Man(b1-4)GlcNAc(b1-4)[Fuc(a1-6)]GlcNAc
In short: (§1)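 The Consortium for Functional Glycomics database supplied 3228 glycan arrays, of which those lacking an available protein sequence were dropped. The binding signal, a within-array Z-score, was averaged across arrays of the same protein sequence and across linkers. Negative scores can be read as non-binding.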

[2] = biological target: Gal(b1-4)GlcNAc(b1-3)Gal(b1-4)GlcNAc(b1-3)Gal(b1-4)GlcNAc(b1-3)Gal(b1-4)GlcNAc(b1-3)Gal(b1-4)GlcNAc(b1-3)Gal(b1-4)GlcNAc(b1-2)Man(a1-3)[Gal(b1-4)GlcNAc(b1-3)Gal(b1-4)GlcNAc(b1-3)Gal(b1-4)GlcNAc(b1-3)Gal(b1-4)GlcNAc(b1-3)Gal(b1-4)GlcNAc(b1-3)Gal(b1-4)GlcNAc(b1-2)Man(a1-6)]Man(b1-4)GlcNAc(b1-4)GlcNAc
In short: as §1

[3] = biological target: Gal(b1-4)GlcNAc(b1-3)Gal(b1-4)GlcNAc(b1-3)GalNAc
In short: as §1

[4] = biological target: Gal(b1-4)GlcNAc(b1-3)Gal(b1-4)GlcNAc(b1-3)[Gal(b1-4)GlcNAc(b1-3)Gal(b1-4)GlcNAc(b1-6)]GalNAc
In short: as §1

[5] = biological target: Gal(b1-4)GlcNAc(b1-3)Gal(b1-4)GlcNAc(b1-6)[Gal(b1-3)]GalNAc
In short: as §1

[6] = biological target: Gal(b1-4)GlcNAc(b1-3)Gal(b1-4)[Fuc(a1-3)]GlcNAc(b1-3)Gal(b1-4)[Fuc(a1-3)]GlcNAc
In short: as §1

[7] = biological target: Gal(b1-4)GlcNAc(b1-3)GalNAc
In short: as §1

[8] = biological target: Gal(b1-4)GlcNAc(b1-3)[Fuc(a1-3)GlcNAc(b1-6)]Gal(b1-4)Glc
In short: as §1

[9] = biological target: Gal(b1-4)GlcNAc(b1-3)[Gal(b1-4)GlcNAc(b1-6)]Gal(b1-4)GlcNAc
In short: as §1

[10] = biological target: Gal(b1-4)GlcNAc(b1-3)[GlcNAc(b1-6)]Gal(b1-4)GlcNAc
In short: as §1

[11] = biological target: Gal(b1-4)GlcNAc(b1-6)Gal(b1-4)GlcNAc
In short: as §1

[12] = biological target: Gal(b1-4)GlcNAc(b1-6)GalNAc
In short: as §1

[13] = biological target: Gal(b1-4)GlcNAc(b1-6)[Gal(b1-3)]GalNAc
In short: as §1

[14] = biological target: Gal(b1-4)GlcNAc(b1-6)[Gal(b1-4)GlcNAc(b1-3)]GalNAc
In short: as §1

[15] = biological target: Gal(b1-4)GlcNAc6P
In short: as §1

[16] = biological target: Gal(b1-6)Gal
In short: as §1

[17] = biological target: Gal3S(b1-3)GalNAc
In short: as §1

[18] = biological target: Gal3S(b1-3)GlcNAc
In short: as §1

[19] = biological target: Gal3S(b1-3)[Fuc(a1-4)]GlcNAc
In short: as §1

[20] = biological target: Gal3S(b1-4)Glc
In short: as §1

[21] = biological target: Gal3S(b1-4)Glc6S
In short: as §1

[22] = biological target: Gal3S(b1-4)GlcNAc
In short: as §1

[23] = biological target: Gal3S(b1-4)[Fuc(a1-3)]Glc6S
In short: as §1

[24] = biological target: Gal3S(b1-4)[Fuc(a1-3)]GlcNAc
In short: as §1

[25] = biological target: Gal3S(b1-4)[Fuc(a1-3)]GlcNAc6S
In short: as §1

[26] = biological target: Gal3S4S(b1-4)GlcNAc
In short: as §1

[27] = biological target: Gal3S6S(b1-4)GlcNAc
In short: as §1

[28] = biological target: Gal3S6S(b1-4)GlcNAc6S
In short: as §1

[29] = biological target: Gal4S(b1-4)GlcNAc
In short: as §1

[30] = biological target: Gal4S6S(b1-4)GlcNAc
In short: as §1

[31] = biological target: Gal6P(b1-4)GlcNAc
In short: as §1

[32] = biological target: Gal6S(b1-3)GlcNAc
In short: as §1

[33] = biological target: Gal6S(b1-3)GlcNAc6S
In short: as §1

[34] = biological target: Gal6S(b1-4)Glc
In short: as §1

[35] = biological target: Gal6S(b1-4)Glc6S
In short: as §1

[36] = biological target: Gal6S(b1-4)GlcNAc
In short: as §1

[37] = biological target: Gal6S(b1-4)GlcNAc6S
In short: as §1

[38] = biological target: GalNAc(a1-3)Gal
In short: as §1

[39] = biological target: GalNAc(a1-3)GalNAc
In short: as §1

[40] = biological target: GalNAc(a1-3)GalNAc(b1-3)Gal(a1-4)Gal(b1-4)Glc
In short: as §1

[41] = biological target: GalNAc(a1-3)GalNAc(b1-3)Gal(a1-4)Gal(b1-4)GlcNAc
In short: as §1

[42] = biological target: GalNAc(b1-3)Gal
In short: as §1

[43] = biological target: GalNAc(b1-3)Gal(a1-4)Gal(b1-4)GlcNAc
In short: as §1

[44] = biological target: GalNAc(b1-3)Gal(a1-4)Gal(b1-4)GlcNAc(b1-3)Gal(b1-4)Glc
In short: as §1

[45] = biological target: GalNAc(b1-3)Gal(a1-6)Gal(b1-4)Glc
In short: as §1

B1: Banana lectin (Musa acuminata) (protein)
chain: MNGAIKVGAWGGNGGSAFDMGPAYRIISVKIFSGDVVDGVDVTFTYYGKTETRHYGGSGGTPHEIVLQEGEYLVGMAGEVANYHGAVVLGKLGFSTNKKAYGPFGNTGGTPFSLPIAAGKISGFFGRGGKFLDAIGVYLEPLEHHHHHH
glycan array binding signal (z-score) [1]: -0.138 | glycan array binding signal (z-score) [2]: -0.137 | glycan array binding signal (z-score) [3]: -0.189 | glycan array binding signal (z-score) [4]: -0.183 | glycan array binding signal (z-score) [5]: -0.294 | glycan array binding signal (z-score) [6]: -0.156 | glycan array binding signal (z-score) [7]: -0.212 | glycan array binding signal (z-score) [8]: -0.233 | glycan array binding signal (z-score) [9]: -0.237 | glycan array binding signal (z-score) [10]: -0.231 | glycan array binding signal (z-score) [11]: -0.217 | glycan array binding signal (z-score) [12]: -0.174 | glycan array binding signal (z-score) [13]: -0.21 | glycan array binding signal (z-score) [14]: -0.229 | glycan array binding signal (z-score) [15]: -0.247 | glycan array binding signal (z-score) [16]: -0.217 | glycan array binding signal (z-score) [17]: -0.209 | glycan array binding signal (z-score) [18]: -0.207 | glycan array binding signal (z-score) [19]: -0.209 | glycan array binding signal (z-score) [20]: -0.209 | glycan array binding signal (z-score) [21]: -0.202 | glycan array binding signal (z-score) [22]: -0.227 | glycan array binding signal (z-score) [23]: -0.114 | glycan array binding signal (z-score) [24]: -0.214 | glycan array binding signal (z-score) [25]: -0.207 | glycan array binding signal (z-score) [26]: -0.23 | glycan array binding signal (z-score) [27]: -0.227 | glycan array binding signal (z-score) [28]: -0.143 | glycan array binding signal (z-score) [29]: -0.216 | glycan array binding signal (z-score) [30]: -0.221 | glycan array binding signal (z-score) [31]: -0.223 | glycan array binding signal (z-score) [32]: -0.197 | glycan array binding signal (z-score) [33]: -0.207 | glycan array binding signal (z-score) [34]: -0.208 | glycan array binding signal (z-score) [35]: -0.187 | glycan array binding signal (z-score) [36]: -0.197 | glycan array binding signal (z-score) [37]: -0.349 | glycan array binding signal (z-score) [38]: -0.205 | glycan array binding signal (z-score) [39]: -0.213 | glycan array binding signal (z-score) [40]: -0.229 | glycan array binding signal (z-score) [41]: -0.185 | glycan array binding signal (z-score) [42]: -0.213 | glycan array binding signal (z-score) [43]: -0.215 | glycan array binding signal (z-score) [44]: -0.211 | glycan array binding signal (z-score) [45]: -0.218
